Results: the BET-seq Pho4 binding data (Le et al. 2018)
Some of the results follow. These are noisy estimates, calculated here from bound and input reads.

Molecular target: T1, Pho4 (S. cerevisiae) (UniProt P07270)
T1 sequence: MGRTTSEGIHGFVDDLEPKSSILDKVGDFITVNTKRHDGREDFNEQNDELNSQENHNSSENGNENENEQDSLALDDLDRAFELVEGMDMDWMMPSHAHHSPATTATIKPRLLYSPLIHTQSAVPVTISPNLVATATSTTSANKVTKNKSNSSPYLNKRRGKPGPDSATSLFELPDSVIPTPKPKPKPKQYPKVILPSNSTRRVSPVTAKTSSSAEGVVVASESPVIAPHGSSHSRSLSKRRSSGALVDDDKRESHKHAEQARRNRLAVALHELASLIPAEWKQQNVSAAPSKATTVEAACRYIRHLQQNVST
Assay: relative binding free energy (BET-seq); higher = weaker binding
Conditions: reference: library average

| Sequence | relative binding free energy |
| --- | --- |
| CTACTCACGTGTGTGG | 0.09 kcal/mol |
| AGCAGCACGTGGATGT | 0 kcal/mol |
| AGTAGCACGTGGTGGT | -0.1 kcal/mol |
| TGGTTCACGTGCGCGA | 0.16 kcal/mol |
| TAAATCACGTGGTTGA | 0.15 kcal/mol |
| CGGGTCACGTGAAGGT | 0.2 kcal/mol |
| GATTACACGTGGTAGT | 0.08 kcal/mol |
| TTGAACACGTGTTCTT | -0.05 kcal/mol |
| GCGGGCACGTGTGGTG | -0.01 kcal/mol |
| CTGGTCACGTGGGAAG | -0.1 kcal/mol |
| GGGGACACGTGAACGG | 0.3 kcal/mol |
| AGAGTCACGTGTGCGT | -0.02 kcal/mol |
| TGTCGCACGTGAGGAA | 0.21 kcal/mol |
| TAGCTCACGTGTTGAT | 0.17 kcal/mol |
| AGGGGCACGTGTCTAG | -0.24 kcal/mol |
| GTTCGCACGTGAGGGA | 0.11 kcal/mol |
| CTGCGCACGTGGGGGA | -0.26 kcal/mol |
| GTGTGCACGTGGTCTA | -0.16 kcal/mol |
| TCAATCACGTGTTAGT | 0.07 kcal/mol |
| TTTAGCACGTGGCGCG | 0 kcal/mol |
| TTGAGCACGTGGGGAT | -0.15 kcal/mol |

| Sequence | relative binding free energy |
| --- | --- |
| ACTGGCACGTGGAGAT | -0.04 kcal/mol |
| TGGAGCACGTGGTTTG | -0.03 kcal/mol |
| TGTTGCACGTGGGGAA | -0.07 kcal/mol |
| TCATGCACGTGTGGCG | -0.01 kcal/mol |
| TATGACACGTGTCGTT | -0.03 kcal/mol |
| CTTAACACGTGGAGGG | -0.03 kcal/mol |
| AAAGGCACGTGTAATG | 0.04 kcal/mol |
| ATGTGCACGTGCGGCG | -0.24 kcal/mol |
| GTTGTCACGTGCGGCC | 0.15 kcal/mol |
| GTGCACACGTGGGATT | 0.03 kcal/mol |
| CGGTTCACGTGGTGAT | 0.14 kcal/mol |
| ATGTTCACGTGAGCGT | 0.3 kcal/mol |
| TATGACACGTGTACGG | 0.01 kcal/mol |
| CGGGGCACGTGGTCGG | -0.26 kcal/mol |
| ATAGTCACGTGATGTA | 0.17 kcal/mol |
| TCTTACACGTGTTGGT | 0.11 kcal/mol |
| TTGGTCACGTGACTAG | 0.14 kcal/mol |
| AAGGCCACGTGTTGTG | -0.17 kcal/mol |
| AGAAACACGTGGTAGG | 0.03 kcal/mol |
| TGTATCACGTGGTCAG | 0.17 kcal/mol |
| GGGTGCACGTGCAAGG | 0.09 kcal/mol |

| Sequence | relative binding free energy |
| --- | --- |
| GTTTACACGTGTACTT | 0.05 kcal/mol |
| ATATACACGTGCTTTT | -0.05 kcal/mol |
| GGTGACACGTGTCATG | 0.14 kcal/mol |
| TGATGCACGTGTGGTC | 0.09 kcal/mol |
| ATGGTCACGTGTGAAT | 0.26 kcal/mol |
| GATGACACGTGTAAGT | 0.12 kcal/mol |
| AAGTACACGTGGGGCA | -0.09 kcal/mol |
| CGTGGCACGTGGTGCG | -0.19 kcal/mol |
| GTATCCACGTGTTTGG | 0.03 kcal/mol |
| TGCGTCACGTGGGTAC | -0.02 kcal/mol |
| TTGAGCACGTGGGTAC | -0.24 kcal/mol |
| GGGGACACGTGTCTTG | -0.02 kcal/mol |
| TGTCGCACGTGCTTTG | -0.13 kcal/mol |
| AAGCGCACGTGGTTGT | -0.16 kcal/mol |
| TCGGTCACGTGTGCAT | 0.21 kcal/mol |
| GTGTGCACGTGATTTT | 0.16 kcal/mol |
| GTGGTCACGTGAAAGT | 0.48 kcal/mol |
| GTGGCCACGTGTTTCG | -0.03 kcal/mol |
| TTTACCACGTGGCTTG | 0.03 kcal/mol |
| AAATGCACGTGTTTTG | -0.07 kcal/mol |
| TATAACACGTGGGGGA | -0.22 kcal/mol |
